# From PMC4336329 (PLoS ONE, 2015)
# Hit rate of the full screen: of about 310,000 compounds, about 2,200 (0.71%) showed an effect of 50% or more. Effects have a minus sign here. The list shows a part of the results.
# Target: human ether-à-go-go-related gene (hERG) potassium channel (human, UniProt Q12809)
# Assay: primary screen, population patch clamp on CHO cells stably expressing hERG
# human ether-à-go-go-related gene (hERG) potassium channel, sequence (Q12809 whole entry, looked up): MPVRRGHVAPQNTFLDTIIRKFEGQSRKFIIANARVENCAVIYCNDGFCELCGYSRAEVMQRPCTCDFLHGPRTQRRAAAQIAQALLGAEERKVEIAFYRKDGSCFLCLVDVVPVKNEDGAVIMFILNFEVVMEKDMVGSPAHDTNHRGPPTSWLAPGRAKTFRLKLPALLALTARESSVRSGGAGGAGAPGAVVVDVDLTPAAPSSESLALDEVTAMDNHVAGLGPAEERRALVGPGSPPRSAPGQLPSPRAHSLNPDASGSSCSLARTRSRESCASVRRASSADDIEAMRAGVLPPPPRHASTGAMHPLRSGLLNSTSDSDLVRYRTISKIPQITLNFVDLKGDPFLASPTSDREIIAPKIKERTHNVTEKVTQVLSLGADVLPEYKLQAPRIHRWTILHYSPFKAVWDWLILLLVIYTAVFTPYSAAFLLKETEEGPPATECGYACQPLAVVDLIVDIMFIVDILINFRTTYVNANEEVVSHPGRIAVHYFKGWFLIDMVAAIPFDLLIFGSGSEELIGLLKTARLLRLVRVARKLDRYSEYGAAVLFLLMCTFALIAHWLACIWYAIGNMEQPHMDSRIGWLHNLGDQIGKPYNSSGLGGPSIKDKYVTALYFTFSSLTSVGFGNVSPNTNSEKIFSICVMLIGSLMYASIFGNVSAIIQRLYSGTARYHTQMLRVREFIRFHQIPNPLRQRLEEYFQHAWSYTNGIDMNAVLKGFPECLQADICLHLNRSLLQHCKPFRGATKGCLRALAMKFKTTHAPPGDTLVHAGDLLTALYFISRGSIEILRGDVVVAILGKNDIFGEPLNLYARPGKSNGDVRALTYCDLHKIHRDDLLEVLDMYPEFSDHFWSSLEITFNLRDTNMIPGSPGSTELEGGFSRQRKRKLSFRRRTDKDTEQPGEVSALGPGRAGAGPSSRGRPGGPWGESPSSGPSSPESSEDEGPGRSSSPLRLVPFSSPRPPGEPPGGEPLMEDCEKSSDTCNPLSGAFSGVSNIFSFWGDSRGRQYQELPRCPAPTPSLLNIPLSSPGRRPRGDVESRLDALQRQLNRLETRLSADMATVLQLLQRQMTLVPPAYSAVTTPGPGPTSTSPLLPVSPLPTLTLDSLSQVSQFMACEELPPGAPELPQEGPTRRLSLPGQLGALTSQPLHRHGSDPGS
row,Compound,"hERG current change (%, negative = inhibition) at 1uM"
1,COc1ccc(C(=O)OCC(=O)Nc2nnc(-c3ccccc3)o2)cc1,9.9%
2,Cc1ccc(C(=O)NCCN2CCOCC2)c(Cl)c1,4.75%
3,O=C(CSc1nc(O)c(Cc2ccccc2)c(=O)[nH]1)Nc1ccccc1,6.66%
4,COc1ccc(C)cc1NC(=O)C(OC(=O)CNC(=O)c1cccc(F)c1)c1ccccc1 (centres unmarked),5.22%
5,COC1C(C)=C(C)C(=O)N1Cc1ccccc1 (centres unmarked),13.4%
6,CCOC(=O)c1sc(NC(=O)CN(CC)CC)c(C(=O)OCC)c1C,14.6%
7,NC1=NC(=O)C2(COC(c3cccc([N+](=O)[O-])c3)OC2)S1 (centres unmarked),-7.09%
8,O=C(Nc1ccc(Cl)cc1)c1ccc2c(c1)S(=O)(=O)c1ccccc1C2=O,8.33%
9,Cc1ccccc1S(=O)(=O)Nc1nc2ccccc2nc1Cl,10.2%
10,Cc1ccccc1OCC(=O)OCC(=O)c1ccc[nH]1,10.2%
11,COC(=O)CN(c1ccc(OC)cc1)S(=O)(=O)c1c(C)noc1C,10.6%
12,Cc1ccccc1NC(=S)NNC(=O)c1csc2c1CCC(C)C2 (centres unmarked),10.4%
13,Cc1ccccc1Oc1ccc(NC(=O)C2CC=CCC2C(=O)O)cc1 (centres unmarked),9.4%
14,C/C(=N\NC(=O)c1ccc(CN2CCOCC2)cc1)c1ccc(NC(=O)c2ccccc2)cc1,9.2%
15,C=CCn1c(N)c(C(=O)NCc2ccco2)sc1=S,3.13%
16,CN1CCc2nc(SCC(=O)Nc3cccc(F)c3)c(C#N)c(-c3cccs3)c2C1,-8.28%
17,CCC(=O)N(CC)c1nc(-c2ccc(OC)cc2)cs1,8.42%
18,O=C(Nc1ccc(Cl)cc1)N1CCc2[nH]c3ccccc3c2C1,-11.3%
19,CN(C)/C=N/c1nc(Sc2ccc(C(F)(F)F)cc2[N+](=O)[O-])n[nH]1,4.55%
20,CCNC(=O)c1c(O)c2cccc3c2n(c1=O)CC3,11.9%
21,COCc1cc(C)nc2sc(C(=O)NCCO)c(-n3cccc3)c12,16.1%
22,COc1cccc(CNC(=O)CCC2CCCN(Cc3cc(Cl)ccc3O)C2)c1 (centres unmarked),-20%
23,Cc1ccc(NC(=O)c2nc[nH]c2C(=O)N[C@@H](C)C(=O)OC(C)(C)C)cc1,14.5%

row,Compound,"hERG current change (%, negative = inhibition) at 1uM"
1,C=CCN(C(=O)c1oc2c(Cl)cc(C)cc2c1C)C1CCS(=O)(=O)C1 (centres unmarked),2.56%
2,COc1ccc(C(=O)N2CCN(C(=O)Cc3ccccc3)CC2)cc1OC,12.5%
3,Cc1ccc(OCCCC(=O)NCc2ccco2)cc1,13.7%
4,O=C(Nc1cccc(Cl)c1)NC1CCCCC1,-1.95%
5,O=C1c2cccnc2C(Nc2ccc(Br)cc2Br)N1Cc1cccs1 (centres unmarked),1.49%
6,Cc1cc(C)c(C#N)c(SCC(=O)Nc2nonc2N)n1,8.17%
7,O=C(Nc1ccc2c(c1)OCO2)c1cn(Cc2ccc(F)cc2)nn1,19.9%
8,O=C(CCl)N(CCCNC(=O)C(F)(F)F)c1ccc([N+](=O)[O-])cc1,10.3%
9,COc1cccc(C2[C@H](C)C3(CCN2C)OCCO3)c1.Cl (some centres unmarked),15.6%
10,O=C(COC(=O)CNC(=O)c1ccc(Br)o1)Nc1ccc2c(c1)OCCO2,1.57%
11,CCOc1ccc(S(=O)(=O)N2CCC(C(=O)NCc3ccccn3)CC2)cc1,-3.27%
12,O=C(Oc1ccc(C(=S)N2CCOCC2)cc1)c1ccc(F)cc1,14.5%
13,Cc1nnc2n(-c3ccccc3)c(=O)c3c4c(sc3n12)COC(C(C)C)C4 (centres unmarked),9.92%
14,CCC[C@@H](CN[C@@H](CNC)C(C)C)NCCCCc1ccccc1,3.77%
15,NS(=O)(=O)c1ccc(-c2ccc(C=C3C(=O)c4ccccc4C3=O)o2)cc1,13.6%
16,CC[C@H](C)[C@@H](C(=O)NCCCCCCCCCCC(=O)N1CCNCC1)n1cc(CCCCCN)nn1,16.7%
17,O=C(CCn1cncn1)N1CCCC(N2CCN(c3ccc(F)cc3)CC2)C1 (centres unmarked),8.37%
18,O=C(c1ccc(COc2ccc(F)cc2)o1)n1cc(Br)cn1,9.35%
19,O=C(COC(=O)C1Cc2ccccc2CN1C(=O)c1ccccc1)Nc1ccc(SC(F)F)cc1 (centres unmarked),-5.74%
20,COc1ccc(Oc2coc3c(CN(C)C)c(O)ccc3c2=O)cc1,14.7%
21,CCN(NC(=O)C(O)(c1ccc(F)cc1)c1ccc(F)cc1)C(=O)c1ccccc1,12.4%
22,COC(=O)C1=C(N)Oc2cc(C)n(Cc3ccco3)c(=O)c2C1c1cccc(Cl)c1 (centres unmarked),7.31%
23,Cn1ncc([N+](=O)[O-])c1C(=O)Nc1ccc(Cl)cc1,16.4%

row,Compound,"hERG current change (%, negative = inhibition) at 1uM"
1,CCCCN1C(=O)/C(=c2\sc3nc(=O)c(-c4ccccc4)nn3c2=O)c2ccccc21,5.25%
2,Cn1c(CCNC(=O)c2ccccc2F)nnc1SCC(=O)Nc1nncs1,15.3%
3,O=C(OC(C(=O)NC1CCCCC1)c1ccccn1)c1cccs1 (centres unmarked),12.6%
4,CC(=O)NC(NC(=S)Nc1ccc(S(N)(=O)=O)cc1)C(Cl)(Cl)Cl (centres unmarked),11.6%
5,Cc1ccccc1NC(=O)Cc1nc(-c2c[nH]c(C(=O)N3CCCC3)c2)cs1,11.8%
6,Cn1c2c(c(=O)n(C)c1=O)[C@@H]1c3c(ccc4ccccc34)OC[C@@H]1CO2,10.7%
7,Cc1[nH]n(-c2ccccc2)c(=O)c1C=Nc1ccc(S(=O)(=O)N=C(N)N)cc1,16.6%
8,Cl.Clc1ccc(NCc2ccsc2)cc1,19.5%
9,N#CC1=C(N)Oc2c(ccc3cccnc23)C1c1ccccc1 (centres unmarked),6.62%
10,CC(C)c1ccc(CNc2ccc([N+](=O)[O-])cn2)cc1,9.11%
11,COc1cc(O)oc1C=Nc1ccc(C(=O)O)cc1,9.92%
12,S=c1[nH]nc(NCCc2ccccc2)s1,7.64%
13,CC(C)n1c(SCC(=O)NCc2ccco2)nnc1C1CC1,5.89%
14,COC(=O)c1ccc(OC(=O)CN2C(=O)c3ccccc3C2=O)cc1,16.6%
15,COc1ccc(C(=O)Nc2ccc(N3CCCC3)cc2)cc1Br,9.05%
16,CCNc1nc(NC(C)C)nc(Nn2cnnc2)n1,-1.26%
17,CC1(C)C(C(=O)N2CCN(c3ccc(Cl)cc3)CC2)C1(C)C,2.98%
18,Cn1c(=O)[nH]c(=O)c2c1nc(SCC(=O)Nc1ccccc1)n2Cc1ccccc1,7.34%
19,CC(=O)Nc1ccc(C(=O)NC(CC(=O)O)c2ccc(Cl)cc2)cc1 (centres unmarked),5.92%
20,COC(=O)[C@@H]1C[C@@]2(O)[C@H](O)[C@H](O)[C@H](O)C[C@H]2N1Cc1ccc(C(F)(F)F)cc1,12.2%
21,CNc1ccc(/C=C2\CSc3ccccc3C2=O)cc1[N+](=O)[O-],3.42%
22,COc1cccc(N2CCN(C(=O)c3nc4nc(C)cc(C)n4n3)CC2)c1,8.37%
23,COc1ccc(C(=O)C2CCCN(Cc3ccc4c(c3)OCCO4)C2)cc1F (centres unmarked),-42.1%

row,Compound,"hERG current change (%, negative = inhibition) at 1uM"
1,CC(C)(C)OC(=O)N1CCC(c2cc(=O)n3[nH]cc(C(=O)Nc4ccc(F)c(Cl)c4)c3n2)CC1,16.1%
2,O=C(NCc1cccnc1)c1csc2c1CCCC2,6.9%
3,COc1nc(N2CCCCCC2)nc(N2CCCCCC2)n1,6.08%
4,COc1ccc(CC(=O)OC(C)C(=O)Nc2ccc(S(N)(=O)=O)cc2)cc1 (centres unmarked),6.9%
5,O=C(N/N=C/C(Br)=C\c1ccccc1)c1cccs1,6.04%
6,CC(=O)N1CCc2cc(S(=O)(=O)NCCCN3CCCCC3)ccc21,18.2%
7,S=C(Nc1ccccc1)Nc1nc2ccccc2n1CCOc1ccccc1,5.63%
8,COc1ccc2c(c1)C=C(CN1CCN(Cc3ccccc3C)C(CCO)C1)CO2 (centres unmarked),-0.556%
9,Cl.O=C(O)c1ccc(CNCc2ccccc2F)cc1,8.33%
10,c1ccc(Nc2nc3ccccc3o2)cc1,19.3%
11,C=CCOc1ccc(/C=C2\SC(=Nc3cccnc3)NC2=O)cc1,8.13%
12,Cc1onc(-c2c(F)cccc2Cl)c1C(=O)N1CCN(c2ncc(Br)cn2)CC1,7.62%
13,CC(C)[C@@H](N)C(=O)NCC1CCC(C(=O)N[C@@H](Cc2ccccc2)C(=O)O)CC1.Cl (some centres unmarked),14%
14,O=C(CN(c1ccc(Cl)c(Cl)c1)S(=O)(=O)c1ccccc1)N1CCc2ccccc2C1,9.71%
15,O=C(CN1CCN(Cc2ccccc2)C1=O)NCCCN1CCOCC1,12.8%
16,CCOc1ccc(N=C2SCC(=O)N2CC)cc1,14.2%
17,COc1ccc(CCNC(=O)c2cc(-c3cc(Cl)ccc3O)n[nH]2)cc1OC,11.8%
18,CC(C)(C)NC(=O)CSc1ccc(C(C)(C)C)cc1,13.2%
19,O=C(Oc1cncc(Cl)c1)c1ccco1,14.1%
20,COC(=O)CNC(=O)c1cc(-c2ccncc2)nc2c(C)c(Cl)ccc12,6.54%
